Data: article PMC6097439 (BMC Biology, 2018)
These are yes or no findings as the source states them, for the method shown. Some binding calls cover weakened binding; strength is not graded here.

Chains of the proteins cited; added tags and fusions are not shown. Lines headed by an entry give the natural chain unless they say otherwise; changes in a name come on top. Residues count along the entry.
UniProt P13612: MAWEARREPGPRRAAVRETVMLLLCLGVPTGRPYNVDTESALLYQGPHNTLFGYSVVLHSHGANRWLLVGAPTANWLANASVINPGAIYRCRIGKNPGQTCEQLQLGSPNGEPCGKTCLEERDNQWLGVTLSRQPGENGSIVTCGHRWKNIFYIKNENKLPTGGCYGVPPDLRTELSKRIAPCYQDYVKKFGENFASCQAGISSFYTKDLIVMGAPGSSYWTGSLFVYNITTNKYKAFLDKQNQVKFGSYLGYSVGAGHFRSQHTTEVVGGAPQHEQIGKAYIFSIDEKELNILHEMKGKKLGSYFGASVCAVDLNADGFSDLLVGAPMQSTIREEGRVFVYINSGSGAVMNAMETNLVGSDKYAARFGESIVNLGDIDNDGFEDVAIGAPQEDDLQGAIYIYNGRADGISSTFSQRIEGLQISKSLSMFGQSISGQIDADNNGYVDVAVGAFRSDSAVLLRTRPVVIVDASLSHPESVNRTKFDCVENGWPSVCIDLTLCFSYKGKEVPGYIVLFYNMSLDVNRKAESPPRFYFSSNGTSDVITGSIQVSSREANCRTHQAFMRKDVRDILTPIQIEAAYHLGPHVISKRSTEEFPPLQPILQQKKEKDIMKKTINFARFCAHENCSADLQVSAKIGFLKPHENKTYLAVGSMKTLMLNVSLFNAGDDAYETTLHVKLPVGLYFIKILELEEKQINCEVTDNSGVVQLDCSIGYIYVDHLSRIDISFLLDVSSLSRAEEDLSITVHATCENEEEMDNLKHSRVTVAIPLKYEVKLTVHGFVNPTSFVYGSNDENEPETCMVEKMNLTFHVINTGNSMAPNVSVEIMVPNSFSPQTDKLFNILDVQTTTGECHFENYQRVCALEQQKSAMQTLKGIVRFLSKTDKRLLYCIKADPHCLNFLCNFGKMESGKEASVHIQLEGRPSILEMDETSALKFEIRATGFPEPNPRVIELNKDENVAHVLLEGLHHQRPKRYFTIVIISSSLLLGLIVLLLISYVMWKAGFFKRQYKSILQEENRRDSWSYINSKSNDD
UniProt P26010: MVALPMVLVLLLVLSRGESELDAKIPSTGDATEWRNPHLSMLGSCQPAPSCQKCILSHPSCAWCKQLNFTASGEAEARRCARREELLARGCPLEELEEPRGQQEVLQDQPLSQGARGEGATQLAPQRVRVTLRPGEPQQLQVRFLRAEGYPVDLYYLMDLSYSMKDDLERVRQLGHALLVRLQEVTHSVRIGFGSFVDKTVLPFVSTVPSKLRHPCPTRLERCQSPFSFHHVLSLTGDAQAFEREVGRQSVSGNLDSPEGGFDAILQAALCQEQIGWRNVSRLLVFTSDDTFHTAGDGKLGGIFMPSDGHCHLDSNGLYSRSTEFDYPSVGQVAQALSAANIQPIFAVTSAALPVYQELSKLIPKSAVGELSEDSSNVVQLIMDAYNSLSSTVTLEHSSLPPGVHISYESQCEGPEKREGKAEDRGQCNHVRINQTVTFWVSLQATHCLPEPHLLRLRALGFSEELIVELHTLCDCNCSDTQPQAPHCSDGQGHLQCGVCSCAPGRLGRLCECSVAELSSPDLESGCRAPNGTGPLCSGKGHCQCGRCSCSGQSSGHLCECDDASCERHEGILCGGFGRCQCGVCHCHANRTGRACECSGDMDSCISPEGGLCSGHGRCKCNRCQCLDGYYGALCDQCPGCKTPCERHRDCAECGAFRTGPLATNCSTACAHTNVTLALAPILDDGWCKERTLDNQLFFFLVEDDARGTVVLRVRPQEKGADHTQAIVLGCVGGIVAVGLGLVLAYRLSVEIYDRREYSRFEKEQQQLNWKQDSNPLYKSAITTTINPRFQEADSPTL
UniProt Q02763: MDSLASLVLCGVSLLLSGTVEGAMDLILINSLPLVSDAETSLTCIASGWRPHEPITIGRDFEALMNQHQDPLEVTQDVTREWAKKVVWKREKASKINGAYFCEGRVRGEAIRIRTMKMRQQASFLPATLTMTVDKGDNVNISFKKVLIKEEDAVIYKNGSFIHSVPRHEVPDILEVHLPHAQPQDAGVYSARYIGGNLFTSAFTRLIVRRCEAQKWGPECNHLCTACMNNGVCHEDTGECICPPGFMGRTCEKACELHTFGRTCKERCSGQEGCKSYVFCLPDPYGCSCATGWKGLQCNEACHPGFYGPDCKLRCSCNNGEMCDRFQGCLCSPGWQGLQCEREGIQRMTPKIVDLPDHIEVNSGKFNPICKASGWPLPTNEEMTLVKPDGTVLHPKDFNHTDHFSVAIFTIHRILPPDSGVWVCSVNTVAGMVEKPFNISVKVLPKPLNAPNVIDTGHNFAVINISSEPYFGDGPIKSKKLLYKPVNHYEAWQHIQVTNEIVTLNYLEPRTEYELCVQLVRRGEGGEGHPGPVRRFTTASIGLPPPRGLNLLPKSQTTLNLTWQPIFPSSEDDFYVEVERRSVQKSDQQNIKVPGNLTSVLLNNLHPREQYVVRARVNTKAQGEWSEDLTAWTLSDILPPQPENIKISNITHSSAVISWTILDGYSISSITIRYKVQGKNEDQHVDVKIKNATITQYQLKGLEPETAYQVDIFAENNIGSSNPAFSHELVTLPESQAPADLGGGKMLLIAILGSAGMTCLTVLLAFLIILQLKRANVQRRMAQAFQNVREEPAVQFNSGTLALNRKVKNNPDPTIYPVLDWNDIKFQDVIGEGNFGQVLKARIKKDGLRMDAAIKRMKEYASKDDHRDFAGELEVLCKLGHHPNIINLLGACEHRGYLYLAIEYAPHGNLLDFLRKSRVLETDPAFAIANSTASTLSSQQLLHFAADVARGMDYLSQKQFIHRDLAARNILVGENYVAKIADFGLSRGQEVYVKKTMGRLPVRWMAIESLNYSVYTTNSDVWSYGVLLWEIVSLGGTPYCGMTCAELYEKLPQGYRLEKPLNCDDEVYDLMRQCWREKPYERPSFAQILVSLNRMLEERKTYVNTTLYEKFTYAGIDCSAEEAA
Tie2 expressed on TIME cells (human (endogenous in TIME cells)): residues 23-1124 of Q02763
UniProt P06756: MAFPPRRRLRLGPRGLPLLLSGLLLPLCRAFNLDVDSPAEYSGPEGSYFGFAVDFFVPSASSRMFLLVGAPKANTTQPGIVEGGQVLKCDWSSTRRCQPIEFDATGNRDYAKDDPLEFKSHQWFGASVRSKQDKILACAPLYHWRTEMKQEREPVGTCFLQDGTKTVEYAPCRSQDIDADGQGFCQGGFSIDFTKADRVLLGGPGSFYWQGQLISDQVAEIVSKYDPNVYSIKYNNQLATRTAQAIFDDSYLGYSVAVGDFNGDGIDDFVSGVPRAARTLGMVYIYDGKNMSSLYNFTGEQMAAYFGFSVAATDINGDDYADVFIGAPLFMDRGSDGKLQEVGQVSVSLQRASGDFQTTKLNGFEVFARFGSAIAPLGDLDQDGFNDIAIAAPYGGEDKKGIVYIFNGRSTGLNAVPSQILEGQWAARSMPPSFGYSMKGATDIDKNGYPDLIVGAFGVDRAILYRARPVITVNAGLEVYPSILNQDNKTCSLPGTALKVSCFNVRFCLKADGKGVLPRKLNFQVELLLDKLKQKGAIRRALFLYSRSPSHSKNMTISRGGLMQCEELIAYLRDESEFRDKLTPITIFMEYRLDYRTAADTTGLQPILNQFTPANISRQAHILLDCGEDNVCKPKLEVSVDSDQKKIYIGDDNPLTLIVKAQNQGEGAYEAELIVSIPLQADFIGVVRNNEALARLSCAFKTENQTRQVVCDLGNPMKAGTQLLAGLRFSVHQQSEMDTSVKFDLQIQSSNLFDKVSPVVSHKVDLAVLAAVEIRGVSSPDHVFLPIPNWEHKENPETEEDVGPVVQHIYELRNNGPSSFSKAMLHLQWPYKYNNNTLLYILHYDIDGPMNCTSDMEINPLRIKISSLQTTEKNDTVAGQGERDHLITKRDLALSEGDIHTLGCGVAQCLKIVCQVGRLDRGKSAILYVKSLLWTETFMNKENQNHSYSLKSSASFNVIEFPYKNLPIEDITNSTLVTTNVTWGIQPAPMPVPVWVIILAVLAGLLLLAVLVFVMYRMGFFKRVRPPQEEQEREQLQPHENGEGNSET
UniProt P05106: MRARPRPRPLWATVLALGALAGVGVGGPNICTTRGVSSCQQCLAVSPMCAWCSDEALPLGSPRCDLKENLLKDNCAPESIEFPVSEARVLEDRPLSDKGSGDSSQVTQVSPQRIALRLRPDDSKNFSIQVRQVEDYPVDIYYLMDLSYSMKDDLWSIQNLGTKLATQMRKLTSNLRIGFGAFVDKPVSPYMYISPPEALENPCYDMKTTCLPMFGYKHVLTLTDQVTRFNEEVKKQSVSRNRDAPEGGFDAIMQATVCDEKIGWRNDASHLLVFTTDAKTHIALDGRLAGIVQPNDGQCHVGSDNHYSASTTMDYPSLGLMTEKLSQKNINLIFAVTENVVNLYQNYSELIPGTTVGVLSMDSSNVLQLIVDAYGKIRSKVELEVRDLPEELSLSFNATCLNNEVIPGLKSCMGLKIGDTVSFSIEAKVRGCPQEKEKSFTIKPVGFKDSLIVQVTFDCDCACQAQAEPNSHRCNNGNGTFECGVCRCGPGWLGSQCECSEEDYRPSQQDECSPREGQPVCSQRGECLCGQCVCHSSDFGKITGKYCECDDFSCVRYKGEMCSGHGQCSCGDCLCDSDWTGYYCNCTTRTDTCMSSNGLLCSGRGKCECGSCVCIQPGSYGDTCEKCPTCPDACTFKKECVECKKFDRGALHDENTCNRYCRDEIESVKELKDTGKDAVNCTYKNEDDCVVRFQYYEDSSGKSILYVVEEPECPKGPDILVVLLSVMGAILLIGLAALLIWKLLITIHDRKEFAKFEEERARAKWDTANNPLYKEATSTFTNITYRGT

Legend:
[1] = target: Ang2-BDBC10, yeast-displayed (UniProt O15123); experiment: flow cytometry on cells; yeast-displayed Ang2-BD clones; 20 nM soluble Tie2-Fc, 1 h room temperature; FITC anti-human Fc detection; normalized to display level and to Ang2-BDWT; only the binder purified
[2] = target: Ang2-BDBC14, yeast-displayed (UniProt O15123); experiment: as above
[3] = target: Ang2-BDBC35, yeast-displayed (UniProt O15123); experiment: as above
[4] = target: Ang2-BDBC5, yeast-displayed (UniProt O15123); experiment: as above
[5] = target: Ang2-BDBC6, yeast-displayed (UniProt O15123); experiment: as above
[6] = target: Ang2-BDWT, yeast-displayed (UniProt O15123); experiment: as above
[7] = target: Ang2-BDBC10, yeast-displayed (UniProt O15123); experiment: flow cytometry on cells; yeast-displayed Ang2-BD clones; 50 nM solubilized integrins, 1 h room temperature; labelled anti-α-subunit antibodies; normalized to display level; only the binder purified
[8] = target: Ang2-BDBC14, yeast-displayed (UniProt O15123); experiment: as above
[9] = target: Ang2-BDBC35, yeast-displayed (UniProt O15123); experiment: as above
[10] = target: Ang2-BDBC5, yeast-displayed (UniProt O15123); experiment: as above
[11] = target: Ang2-BDBC6, yeast-displayed (UniProt O15123); experiment: as above
[12] = target: Ang2-BDWT, yeast-displayed (UniProt O15123); experiment: as above
[13] = target: Ang2-BDWT, yeast-displayed (UniProt O15123); experiment: flow cytometry on cells; yeast-displayed Ang2-BD; 10 nM soluble αvβ3 integrin in IBB (20 mM Tris-HCl pH 7.5, 100 mM NaCl, 1 mM MnCl2, 2 mM CaCl2, 1% BSA), 1 h room temperature; FITC anti-αv detection, anti-cMyc for display; only the binder purified
[14] = target: recombinant α4β7 integrin (human) (UniProt P13612+P26010); experiment: SPR; integrins other than αvβ3 immobilized by amine coupling, 1 μM of the Ang2-BD variants as analyte, 25 °C, IBB; both purified
[15] = target: Tie2 expressed on TIME cells (human (endogenous in TIME cells)) (UniProt Q02763); experiment: flow cytometry on cells; 10^5 TIME cells with different concentrations of Ang2-BD variants in PBSA, 2 h at 4 °C; anti-FLAG detection; only the binder purified
[16] = target: T1, αvβ3 integrin expressed on TIME cells (human (endogenous in TIME cells)) (UniProt P06756+P05106); experiment: as above
[17] = target: Tie2 expressed on TIME cells (human (endogenous in TIME cells)) (UniProt Q02763); experiment: flow cytometry on cells; competitive binding on TIME cells: 1 μM Ang2-BD variant alone or with 1000 ng/ml FL-Ang1 and/or 10 μM cRGD; anti-FLAG detection; only the binder purified
[18] = target: T1, αvβ3 integrin expressed on TIME cells (human (endogenous in TIME cells)); experiment: as above

Molecule | binding [7] | binding [8] | binding [9] | binding [10] | binding [11] | binding [14] | binding [15] | binding [16] | binding [17] | binding [18] | also measured
Tie2-Fc (from UniProt Q02763 23-748) (Fc fusion) |  |  |  |  |  |  |  |  |  |  | binding [1]: binds; binding [2]: binds; binding [3]: binds; binding [4]: binds; binding [5]: binds; binding [6]: binds
recombinant α4β7 integrin (from UniProt P13612 35-977; P26010 20-723) (complex) | no binding (tested: 50 nM) | no binding (tested: 50 nM) | no binding (tested: 50 nM) | no binding (tested: 50 nM) | no binding (tested: 50 nM) |  |  |  |  |  | 
recombinant αvβ3 integrin (from UniProt P06756 31-992; P05106 27-718) (complex) | binds | binds | binds | binds | binds |  |  |  |  |  | binding [12]: no binding (tested: 50 nM); binding [13]: no binding (tested: 10 nM)
recombinant αvβ5 integrin (from UniProt P06756 31-992; P18084 24-719) (complex) | binds weakly | binds weakly | binds weakly | binds weakly | binds weakly |  |  |  |  |  | 
Ang2-BDBC6, soluble protein (designed binder, also called Ang2-BD bi-specific variant; source: Pichia (Multi-Copy Pichia Expression Kit), purified from yeast culture supernatant (HisTrap, Superdex 200)) FRDCAEVFKSGHTTNGIYTLREGRGDNVDIKAYCDMEAGGGGWTIIQRREDGSVDFQRTWKEYKVGFGNPSGEYWLGNEFVSQLTNQQRYVLKIHLKDWEGNEAYSLYEHFYLSSEELNYRIHLKGLTGTAGKISSISQPGNDFSTKDGDNDKCICKCSQMLTGGWWFDACGPSNLNGMYYPQRQNTNKFNGIKWYYWKGSGYSLKATTMMIRPADF |  |  |  |  |  | no binding (tested: 1 μM) | binds | binds | binds | binds | 
Ang2-BDBC5, soluble protein (designed binder, also called Ang2-BD bi-specific variant; source: Pichia (Multi-Copy Pichia Expression Kit), purified from yeast culture supernatant (HisTrap, Superdex 200)) FRDCAEVFKSGHTTNGIYTLNTCRGDCLPIKAYCDMEAGGGGWTIIQRREDGSVDFQRTWKEYKVGFGNPSGEYWLGNEFVSQLTNQQRYVLKIHLKDWEGNEAYSLYEHFYLSSEELNYRIHLKGLTGTAGKISSISQPGNDFSTKDGDNDKCICKCSQMLTGGWWFDACGPSNLNGMYYPQRQNTNKFNGIKWYYWKGSGYSLKATTMMIRPADF |  |  |  |  |  | no binding (tested: 1 μM) | binds | binds | binds | binds | 
Ang2-BDBC10, soluble protein (designed binder, also called Ang2-BD bi-specific variant; source: Pichia (Multi-Copy Pichia Expression Kit), purified from yeast culture supernatant (HisTrap, Superdex 200)) FRDCAEVFKSGHTTNGIYTLYPGRGDNPDIKAYCDMEAGGGGWTIIQRREDGSVDFQRTWKEYKVGFGNPSGEYWLGNEFVSQLTNQQRYVLKIHLKDWEGNEAYSLYEHFYLSSEELNYRIHLKGLTGTAGKISSISQPGNDFSTKDGDNDKCICKCSQMLTGGWWFDACGPSNLNGMYYPQRQNTNKFNGIKWYYWKGSGYSLKATTMMIRPADF |  |  |  |  |  | no binding (tested: 1 μM) | binds | binds | binds | binds | 
Ang2-BDWT, soluble protein (domain or fragment, UniProt O15123 281-496, looked up, The limits 281-496 are stated for the Ang2-BDWT gene; also called wild-type Ang2 BD; mono-specific Ang2-BDWT; source: Pichia (Multi-Copy Pichia Expression Kit), purified from yeast culture supernatant (HisTrap, Superdex 200)) FRDCAEVFKSGHTTNGIYTLTFPNSTEEIKAYCDMEAGGGGWTIIQRREDGSVDFQRTWKEYKVGFGNPSGEYWLGNEFVSQLTNQQRYVLKIHLKDWEGNEAYSLYEHFYLSSEELNYRIHLKGLTGTAGKISSISQPGNDFSTKDGDNDKCICKCSQMLTGGWWFDACGPSNLNGMYYPQRQNTNKFNGIKWYYWKGSGYSLKATTMMIRPADF |  |  |  |  |  |  |  |  | binds |  | 
